Laboratory results as given in PubChem BioAssay AID1466 (National Center for Advancing Translational Sciences (NCATS), 2008).
Hit rate of the full screen: of about 200,000 compounds, about 10 (0.005%) were called active. The inconclusive results got no clear call from the source; some entries with a clear call stand among them for comparison. The call rests on the fitted dose curve; in most records, active means well fitted inhibition curve with a large enough effect; inconclusive means small, poorly fitted or top-dose-only effect, or effect the other way, or another doubt; inactive means no such curve, though single readings can be large or run the other way. Potencies of inconclusive entries are left out as doubtful fits.

These compounds were tested against Lysosomal alpha-glucosidase (Homo sapiens) (UniProt P10253) (assay: qHTS Assay for Inhibitors of Human alpha-Glucosidase as a Potential Chaperone Treatment of Pompe Disease). Settings: purified human GAA, 4-MU-alpha-glucoside fluorescence; activity change, negative = inhibition: at 76.9 µM (top of the series) unless noted.
Outline: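 Activity normalized between no-enzyme (basal) and enzyme-only wells. Conditions: 4 nM human enzyme, 400 uM fluorogenic substrate, citrate/phosphate pH 5.0 with Tween-20, 20 min room temperature, compounds up to 77 uM.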
Potency means the concentration at half of the fitted maximal effect; tags describe the fitted curve by direction and shape.
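Wherever activity change, negative = inhibition is given: plate controls were uninhibited enzyme wells for no effect and no-enzyme background for full effect.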

| Compound | Potency | activity change, negative = inhibition |
| --- | --- | --- |
| CCC(C)Nc1ncnc2c1cnn2Cc1ccc(Cl)cc1 (centres undefined) | inconclusive [inhibitor, partial curve, poor fit] | – |
| COc1ccccc1NC(=O)N1CCc2[nH]c3ccc(Cl)cc3c2C1 | inconclusive [inhibitor, single point] | – |
| O=C(NC(=S)NCCO)c1sc2ccccc2c1Cl | inconclusive [inhibitor, single point] | – |
| COc1cc2c(cc1OC)CN(C(=S)Nc1c(C)cccc1C)CC2 | inconclusive [inhibitor, partial curve, poor fit] | – |
| CCN1CCc2c(sc(NC(=O)c3ccc(S(=O)(=O)N4CCOCC4)cc3)c2C(N)=O)C1 | – | inconclusive: -16.8% [inhibitor] |
| CSC1=C(C#N)C(c2ccc(Cl)cc2)C2=C(CC(C)(C)CC2=O)N1 (centres undefined) | – | inconclusive: -17.5% [inhibitor] |
| CCN(CC)S(=O)(=O)c1cccc(C(=O)N/N=C/c2ccc(O)c(O)c2O)c1 | inconclusive [inhibitor, single point] | – |
| Cc1ccc2cc(CN(Cc3ccco3)C(=O)NC3CCCCC3)c(=O)[nH]c2c1C | inconclusive [inhibitor, partial curve] | – |
| Cc1nc2ccc(NC(=S)NCCCO)cc2nc1C | inconclusive [activator, full curve, poor fit] | – |
| Cc1ccc(C)c(S(=O)(=O)NCc2ccc(C(=O)N3CCC(Cc4ccccc4)CC3)cc2)c1 | inconclusive [inhibitor, partial curve, poor fit] | – |
| O=C(CCC(=O)N/N=C/c1ccc(Br)s1)NCc1ccccc1 | inconclusive [inhibitor, single point] | – |
| N#C/C(=C\c1cn(-c2ccccc2)nc1-c1cccnc1)c1nnc2n1CCCCC2 | inconclusive [inhibitor, single point] | – |
| O=C1CSC(c2ccco2)N1 (centres undefined) | inconclusive [inhibitor, single point] | – |
| COc1ccc(/C=C2\CCCC3C2=NN(C(=O)c2ccco2)C3c2ccc(OC)c(OC)c2)cc1OC (centres undefined) | inconclusive [activator, partial curve] | – |
| CCOC(=O)C(C(=O)Nc1nc2ccccc2s1)C1CCCCC1 (centres undefined) | inconclusive [inhibitor, full curve] | – |
| O=C(C[n+]1cccc(CO)c1)Nc1nc2ccccc2s1 | – | inconclusive: 14% [activator] |
| Cc1cc2ncn(C(=O)c3c(-c4c(Cl)cccc4Cl)noc3C)c2cc1C | – | inconclusive: -17% [inhibitor] |
| O=C(c1ccc(S(=O)(=O)c2ccccc2Cl)c([N+](=O)[O-])c1)N1CCN(Cc2ccccc2)CC1 | inconclusive [inhibitor, single point] | – |
| CCOC(=O)N1CCC(NC(=O)Cn2cc3c(n2)CCC(C)C3)CC1 (centres undefined) | inconclusive [inhibitor, single point] | – |
| Cn1c(SCc2nc(-c3ccc(Cl)cc3)no2)nnc1-c1cccs1 | inconclusive [inhibitor, single point] | – |
| O=S(=O)(Cc1ccc(Cl)cc1)Nc1ccc2c(c1)OCO2 | inconclusive [inhibitor, full curve] | – |
| COC(=O)C(NC(C)=O)(Nc1sc2c(c1C(N)=O)CCCC2)C(F)(F)F (centres undefined) | – | inactive: 1.16% |

| Compound | Potency | activity change, negative = inhibition |
| --- | --- | --- |
| CCCC(C)C(=O)NCc1ccncc1 (centres undefined) | – | inconclusive: 16.6% [activator] |
| COC(=O)c1ccc(OCC(O)CN2C(=O)c3ccccc3S2(=O)=O)cc1 (centres undefined) | – | inconclusive: 18.2% [activator] |
| COc1ccc(-c2nc3ncccn3c2Nc2ccc3c(c2)OCCO3)cc1 | – | inactive: -2.36% |
| Cc1ccc(C(=O)NNc2cc(N3CCCC3)nc(N3CCCC3)n2)cc1 | – | inactive: 5.52% |
| Cc1onc(-c2ccccc2Cl)c1C(=O)Nc1ccc(-c2cn3cccnc3n2)cc1 | inconclusive [activator, partial curve] | – |
| CCOc1cc(/C=C/C(=O)Nc2ccc(C(=O)NCCN(CC)CC)cc2)ccc1OCC(C)C | inconclusive [inhibitor, single point] | – |
| CC(=O)Nc1c([N+](=O)[O-])cc2[nH]c(=O)[nH]c2c1[N+](=O)[O-] | inconclusive [activator, full curve, poor fit] | – |
| COc1ccc(-c2nnc3ccc(SCC(=O)N4CCCCC4)nn23)cc1OC | inconclusive [inhibitor, single point] | – |
| CCOC(=O)C1=C(C)N2C(=C(C#N)[C@@H]1c1ccc(C(=O)OC)cc1)SC[C@@]2(O)C(C)(C)C | inconclusive [inhibitor, partial curve, poor fit] | – |
| Cc1noc2nc(-c3cccs3)cc(-c3nnc4n3CCCCC4)c12 | inconclusive [activator, partial curve] | – |
| COc1cc(CNC(C)(C)CO)cc(Br)c1OCc1ccc(Cl)cc1 | inconclusive [inhibitor, full curve, poor fit] | – |
| Cc1cc(N)c(NC2=CC(=O)CC(C)(C)C2)cc1C | inconclusive [activator, full curve] | – |
| Cc1ccc(NC(=O)CCCC(=O)O)c(Br)c1 | inconclusive [inhibitor, partial curve, poor fit] | – |
| O=C(NCCCN1CCOCC1)c1coc2ccccc2c1=O | inconclusive [inhibitor, full curve, poor fit] | – |
| COc1ccc(/C=N/NC(=O)c2nc(Cl)c(Cl)c(N)c2Cl)cc1COc1ccc(F)cc1F | inconclusive [activator, single point] | – |
| CCn1c2ccccc2c2cc(NC(=O)c3ccc(Br)o3)ccc21 | inconclusive [inhibitor, single point] | – |
| COc1ccccc1NC(=O)Cn1nc(C(F)(F)F)c2c1CCCC2 | inconclusive [inhibitor, partial curve, poor fit] | – |
| Cc1ccc(NNC(=O)C(O)(c2cccc(C(F)(F)F)c2)c2cccc(C(F)(F)F)c2)cc1 | inconclusive [inhibitor, single point] | – |
| CCN(CC)CCCN(Cc1cc2cc3c(cc2[nH]c1=O)OCO3)C(=S)NCc1ccco1 | inconclusive [activator, partial curve] | – |
| COc1ccc(C(=O)C2CCCN(C3Cc4ccccc4C3)C2)cc1OC (centres undefined) | inconclusive [inhibitor, full curve, poor fit] | – |
| Cc1cc(OCCCn2ccnc2)cc(C)c1Cl | inconclusive [inhibitor, partial curve, poor fit] | – |
| Nc1ccccc1Nc1cc(-c2ccccc2)[nH]n1 | – | inactive: 1.2% |

| Compound | Potency | activity change, negative = inhibition |
| --- | --- | --- |
| COc1ccc(C2Nc3ccccc3C(=O)N2O)cc1OC (centres undefined) | inconclusive [inhibitor, partial curve] | – |
| COc1ccc(N(CC(=O)NCc2ccccc2OC)S(=O)(=O)c2c(C)nn(C)c2C)cc1 | inconclusive [inhibitor, single point] | – |
| Cc1ccc2nc(N3CCN(c4ccccc4)CC3)c(C=O)c(=O)n2c1 | – | inconclusive: 17.4% [activator] |
| COc1cccc2c(SCC(=O)N/N=C/c3ccccc3)cc(C)nc12 | – | inactive: -14.4% |
| CCCCc1[nH]c(=O)c(C#N)c2c1CSC(C)(C)C2 | inconclusive [activator, single point] | – |
| Cc1ccc2cc(C#N)c(NCCCNC(=O)C3CCCO3)nc2c1 (centres undefined) | inconclusive [activator, single point] | – |
| Cc1ccccc1N=C/C=C1\N(C)c2ccccc2C1(C)C | inconclusive [inhibitor, partial curve, poor fit] | – |
| COc1ccc(-c2nc(C#N)c(N3CCC(C(N)=O)CC3)o2)cc1OC | inconclusive [activator, single point] | – |
| c1ccc(-c2nn3c(-c4ccco4)nnc3s2)nc1 | inconclusive [inhibitor, single point] | – |
| O=C1CCc2cc(S(=O)(=O)NC(Cc3ccccc3)C(=O)NCC3CCCO3)ccc2N1 (centres undefined) | – | inactive: -4.96% |
| CC1(C)CC(=O)C2=C(C1)NC(SCC(=O)Nc1ccccc1)=C(C#N)C2c1ccco1 (centres undefined) | inconclusive [inhibitor, single point] | – |
| Cn1cc(C=O)c2ccccc21 | – | inconclusive: 15.1% [activator] |
| O=C(Nc1nc2c(s1)CN(Cc1ccccc1)CC2)c1cccc(S(=O)(=O)N2CCc3ccccc32)c1 | – | inactive: -6.47% |
| Clc1ccc(-c2cnc(Oc3ccccc3)nc2)cc1 | inconclusive [inhibitor, full curve] | – |
| C#CCOCCOCCOCCNc1nc(N2CCN(C(=O)[C@H](C)n3cc(CCCN=C(N)N)nn3)CC2)nc(N2CCN(C(=O)[C@H](CCCCN)n3cc(CCCC)nn3)CC2)n1 | – | inactive: -1.5% |
| Cc1c(N=C2SCC(=O)N2/N=C\c2ccc(Br)cc2)c(=O)n(-c2ccccc2)n1C | inconclusive [inhibitor, partial curve] | – |
| COc1ccc(Br)cc1C(=O)N/N=C/c1ccc2c(c1)n(C)c(=O)n2C | inconclusive [activator, single point] | – |
| CC(=O)Nc1c(C)ccc2nsnc12 | inconclusive [inhibitor, single point] | – |
| Cc1cccc(C)c1OCC(O)Cn1c2ccccc2c2ccccc21 (centres undefined) | inconclusive [inhibitor, single point] | – |
| S=c1nc(C2CCCCC2)[nH]c2ccccc12 | – | inconclusive: 18.9% [activator] |
